Data: ChEMBL document CHEMBL1157539, “Thousands of chemical starting points for antimalarial lead identification” (Nature, 2010)
In all, about 13,000 compounds were measured (“IFI”: median about 4, highest 2% from about 17 on). Some of the results follow.

Assay: GSK_TCMDC: Inhibition Frequency Index (IFI). The number of non-kinase HTS assays where a compound showed > 50 % inhibition, expressed as a percentage of the number of such assays in which the compound was tested (-0 is zero)
Assay type: functional

| SMILES | IFI [%] |
| --- | --- |
| CC1(C)NC(N)=NC(=N)N1OCOc1ccc(Cl)cc1 | 1.44 |
| CCCc1cn2c3c(cc(C(=O)N[C@@H](Cc4ccccc4)[C@H](O)CNC4CCOCC4)cc13)N(CC)S(=O)(=O)CC2 | 4.76 |
| CC(C)(C)NCCN(Cc1ccc(-c2ccc(C(F)(F)F)cc2)cc1)C(=O)Cn1c(SCc2ccc(F)cc2)nc(=O)c2c1CCC2 | 11.6 |
| COc1ccc(C2CC(=O)C3=C(C2)NC(C)=C(C(=O)OC2CCCC2)C3c2cccc(O)c2)cc1OC (configuration not stated) | 3.27 |
| O=C(Nc1ccc(C(F)(F)F)cc1)N[C@H]1CCN(CCCCCNC(=O)C2CC2c2ccc(Cl)c(Cl)c2)C1 (some centres not stated) | 16.8 |
| COc1ccc2nccc(N(C)CC3(O)CCN(CC(O)c4ccc5c(c4)NC(=O)CS5)CC3)c2n1 (configuration not stated) | 1.46 |
| CC1CCN(Cc2ccc(NC(=O)c3cc4ccc5cccnc5c4[nH]3)cc2)CC1 | 7.69 |
| O=c1cc(NCCCNCc2ccc(Cl)c(Cl)c2)[nH]c2cc(Cl)ccc12 | 5.41 |
| Cc1ccc(NC(=O)c2ccc(CN3CCCN(CCC(C)C)CC3)cc2)cc1F | 7.2 |
| Cc1cccc2nc(-c3ccc(-c4ccc(CNCc5cnn(-c6ccccc6)n5)cc4)cc3)[nH]c12 | 3.28 |
| CCOc1cc(Br)c(C(C)NC(=O)c2cccc(OC)c2)cc1OCC (configuration not stated) | 2.07 |
| c1cc(-c2nc3ccccc3[nH]2)nc(-c2nc3ccccc3[nH]2)c1 | 0.75 |
| COc1ccc(-c2cncc3ccc(C(=O)NCc4ccncc4)nc23)cc1 | 6.45 |
| COc1cccc(-c2cccc(-c3ccc(NC(=O)c4ccc([N+](=O)[O-])o4)cc3)n2)c1 | 9.52 |
| Cc1[nH]c(C)c(-c2ccc(Oc3ccc(C(F)(F)F)cc3)cc2)c(=O)c1Br | 2.27 |
| FC(F)(F)c1ccc2[nH]c(-c3ccc(-c4cccc(CNCc5ccccc5)c4)cc3)nc2c1 | 12.5 |
| CC(C)C(=O)Nc1c(F)cc(F)cc1CCc1ccc(O)cc1 | -0 |
| CCC[C@@H]([C@@H](CC1CCCCC1)C(=O)N[C@H](C(=O)Nc1nccs1)C(C)(C)SCCNC(=O)OCc1ccccn1)N(O)C=O | 5.8 |
| Cc1ccc(-c2cc3nc4c(c(NCCCn5ccnc5)n3n2)CCC4)cc1 | 2.59 |
| COc1cccc(CNC(=O)c2cnc(N3CCN(c4ccncc4)CC3)c(Cl)c2)c1 | 2.38 |
| CC(C)CNCc1cccc(-c2cccc(CN(CCCN3CCN(C)CC3)C(=O)/C=C/c3ccccc3)c2)c1 | 5.97 |
| O=C(CCN1C(=O)c2ccccc2C1=O)N1CCN(CC=Cc2ccccc2)CC1 | 0.7 |

| SMILES | IFI [%] |
| --- | --- |
| CCN1CCN(c2cc(C)c3cc(NC(=O)c4ccc(Br)o4)ccc3n2)CC1 | 1.48 |
| COc1ccc(-c2c(C(F)(F)F)nn(C)c2NC(=O)Nc2ccc(F)cc2F)cc1 | 3.42 |
| O=S(=O)(NCCN1CCCC1)c1cccc(-c2cccc(CNCc3ccccc3)c2)c1 | 10.9 |
| O=C(NC1CCC(N2CCC(Cc3ccc(F)cc3)CC2)CC1)c1cc2ccccc2[nH]1 (configuration not stated) | 14.7 |
| COc1ccc(-c2ccc(NC(=O)c3ccc(C#N)cc3)cc2)cc1CN1CCCC1 | 5.88 |
| O=S1(=O)NCc2ccc(Nc3nccc(Nc4ccc5c(cnn5Cc5ccccc5)c4)n3)cc21 | 4.35 |
| CN1CCCN(Cc2cccc(-c3ccc(CNC(=O)c4cccc(Cl)c4)c(F)c3)c2)CC1 | 9.33 |
| Oc1cc(NCCCNC2CCc3c(Cl)cc(Cl)cc32)nc2ccccc12 (configuration not stated) | 6.62 |
| O=C(Nc1ccccc1)Nc1cccc(-c2cc(CNCCc3ccccc3)sc2-c2ccncc2)c1 | 4.23 |
| CC(O)C1CCCCN1C(=O)c1cccc(-c2cccc(-c3nc4cc(F)ccc4[nH]3)c2)c1 (configuration not stated) | 3.81 |
| CC(C)C1C(O)=C(c2ccc3ccccc3c2)C(=O)N1Cc1cccc(F)c1 (configuration not stated) | 0.68 |
| O=C(NC1CC1)c1ccc(N2CCCCN2CCc2ccccc2)c(C(F)(F)F)c1 | 4.32 |
| CCOc1ccc(-c2nonc2NC(=O)c2ccc(OC)cc2)cc1OCC | -0 |
| COc1cccc(C(=O)N2CCN(Cc3cccc(NC(=O)c4cccs4)c3)CC2)c1 | 4.62 |
| O=C(/C=C/c1ccc(Cl)c(Cl)c1)NCCCCCN1CCC(NC(=O)Nc2cc(Cl)cc(Cl)c2)CC1 | 11.8 |
| COc1cc2nc(NCCc3ccccc3)nc(NC(C)c3ccccc3)c2cc1OC (configuration not stated) | 11.4 |
| Cc1ccccc1NC(=O)C1CSCN1C(=O)OCc1ccccc1 (configuration not stated) | 1.49 |
| CS(=O)(=O)c1ccc(CNCc2ccc(-c3cccc(-c4nc5cc(C(F)(F)F)ccc5[nH]4)c3)cc2)cc1 | 8.74 |
| CC(C)N(C(=O)CSc1nc2cc(Cl)ccc2c(=O)n1Cc1ccccc1)C(C)C | 1.41 |
| CC(COc1ccc2c(c1)OC(C)(C)CC2c1ccccc1)NCC(O)c1cccc(Cl)c1 (configuration not stated) | 5.59 |
| O=C(Nc1ccc(F)c(F)c1)c1ccc(CN2CCCN(Cc3cccc(O)c3)CC2)cc1 | 8.66 |
| CCc1ccc(C2CCN(CCCCNC(=O)c3ccc(NC(=O)c4ccc(Cl)cc4)cc3)CC2)cc1 | 4.51 |

| SMILES | IFI [%] |
| --- | --- |
| COc1ccc(CNC2Cc3ccccc3C2)cc1-c1ccc(S(=O)(=O)NCCN2CCCC2)cc1 | 7.77 |
| COc1ccc(-c2cc(-c3nc4cc(CN)ccc4[nH]3)c(=O)n(C)c2)cc1OC | 0 |
| COc1ccc2[nH]c(C)cc(=NN=Cc3cc(C)ccc3O)c2c1 | 10.2 |
| Cc1ccc(-c2ccc3c(c2)C=C(C(=O)NC2CCN(CCNC(=O)c4cccc(C(F)(F)F)c4)CC2)CCC3)cc1 | 2.7 |
| N#Cc1c(N2CCN(c3ccc(F)cc3)CC2)nc(N)c2c(N)nc3c(c12)CC(=O)N3C1CC1 | 3.2 |
| O=C(NC1CC1)c1cnc(N2CCC(COc3cccc(F)c3)CC2)c(Cl)c1 | 6.12 |
| CCn1c(-c2nonc2N)nc2c(-c3cccc(NC(=O)Nc4ccc(C(F)(F)F)cc4)c3)ncc(OCCCN)c21 | 19.1 |
| COc1ccc(-c2cc3ncnc(N4CCN(CCN5CCCC5)CC4)c3s2)cc1 | 3.45 |
| O=c1n(CC2CCCCC2)c2cc(Cl)cc(OCCNc3ccncc3)c2n1CC1CCCCC1 | 6.99 |
| CCCCN(C)CC#Cc1ccc2[nH]c(C)c(Cl)c(=O)c2c1 | 1.8 |
| O=C(Nc1nc2cc(S(=O)(=O)NCCCN3CCOCC3)ccc2n1CCCn1ccnc1)c1ccc(Cl)cc1 | 2.14 |
| COc1ccc(OCCCN2CCCCC2)cc1S(=O)(=O)c1ccc(OCc2ccc(C(F)(F)F)cc2)cc1 | 13.2 |
| O=C(c1c(-c2[nH]c3ccccc3c2C(=O)C(F)(F)F)[nH]c2ccccc12)C(F)(F)F | 3.55 |
| COc1ccc(C(=O)N2CCC3(CC2)C(=O)N(CC(=O)NCC2CCCCC2)CN3c2ccccc2)c(OC)c1 | 3.33 |
| CN(C)CCN(C)Cc1ccc(-c2ccc(NC(=O)c3cccc(Cl)c3)cc2)cc1 | 10.1 |
| COCc1nc(N)nc(N)c1-c1ccc(Cl)c(Cl)c1 | 0.75 |
| Cc1cc(=NN=Cc2cccc(Cl)c2)c2ccccc2[nH]1 | 3.42 |
| CC(C)CNCc1ccc(-c2cccc(CNC3CCN(Cc4ccccc4)CC3)c2)cc1 | 3.62 |
| COc1cc(F)c2ncc(Cl)c(CCN3CCC(NCc4ccc5c(c4)NC(=O)CO5)CC3)c2c1 | 5.22 |
| CCOC(=O)c1ccc(NC(=O)N[C@H]2CCN(CCCCCNC(=O)/C=C/c3ccc(Cl)c(Cl)c3)C2)cc1 | 7.91 |
| O=S(=O)(c1ccc2ccccc2c1)N1CCCN(Cc2ccc(OCCCN3CCCCC3)cc2)CC1 | 15.9 |
| CCNc1cc(C(=O)N[C@@H](Cc2ccccc2)[C@H](O)CNCCC(C)c2ccccc2)cc(N2CCCC2=O)c1 (some centres not stated) | 1.45 |

| SMILES | IFI [%] |
| --- | --- |
| CC(C)CCNCc1ccc(OCc2cccc(COc3ccc(CNCCC(C)C)cc3I)c2)c(I)c1 | 10.9 |
| COc1cccc(CN2CCC3(CC2)CN(C(=O)Nc2ccc(Cl)c(Cl)c2)C3)c1 | 6.35 |
| O=C(/C=C/c1ccc(Cl)c(Cl)c1)NCCCCCCN1CCCN(C(=O)Nc2ccc(Cl)c(Cl)c2)CC1 | 9.76 |
| COc1ccc(NC(=O)c2ccc(-c3ccc(-c4cccnc4)cc3)c(C)c2)cc1OCCN(C)C | 6.9 |
| O=C(Nc1ccccc1F)NC1CCN(c2ccnc(Nc3ccc(F)cc3)n2)CC1 | 1.52 |
| CCOC(=O)[C@H](Cc1cccc2ccccc12)NC(=O)[C@H](CCC(=O)OC(C)(C)C)NC(=O)c1ccc(N(C)Cc2cnc3nc(N)nc(N)c3n2)cc1 | 2.86 |
| CCCCOc1ccc(C(=O)C(CCC(CNC(C)(C)C)C(=O)c2ccc(OCCCC)cc2)CNC(C)(C)C)cc1 (configuration not stated) | 25.4 |
| O=C(Nc1ccc(Cl)cc1F)N[C@H]1CCN(CCCCCNC(=O)C2CC2c2ccc(Cl)c(Cl)c2)C1 (some centres not stated) | 14.2 |
| COc1ccc(CNc2ccnc(-n3cnc4cc(C)c(C)cc43)n2)cc1Cl | 0.78 |
| O=C(NCCCN1CCC(N2CCCCC2)CC1)c1ccc2nc(N3CCCCC3)sc2c1 | 2.91 |
| CN1CCN(c2nsc3ccc(-c4ccc(OCCN5CCCC5)cc4)cc23)CC1 | 12.2 |
| Cc1cccc(Nc2nccc(Nc3cccc(C(=O)NCCN4CCOCC4)c3)n2)c1 | -0 |
| COC(=O)C(Cc1ccccc1)C(CSCc1ccc(OC)cc1)C(=O)N[C@@H](C(=O)OC(C)(C)C)c1ccc(C(C)(C)C)cc1 (some centres not stated) | -0 |
| O=C(/C=C/c1cccc(Br)c1)NCCCCCN1CCC(c2c[nH]c3ccccc23)CC1 | 7.75 |
| O=c1cc(NCCCNC2CCOc3c(Cl)cc(Cl)cc32)[nH]c2ccccc12 (configuration not stated) | 7.64 |
| CN(C(=O)Cc1ccc(Cl)c(Cl)c1)C1CCN(CCCCCNC(=O)/C=C/c2ccc(Cl)c(Cl)c2)CC1 | 9.35 |
| CC(C)CCN1CCC(Oc2cccc(NC(=O)c3ccc(C(F)(F)F)cc3)c2)CC1 | 6.58 |
| Cc1ccc(-c2cc(C(=O)Nc3ccc(S(=O)(=O)N4CCCCC4C)cc3)n[nH]2)c(O)c1 (configuration not stated) | 1.75 |
| COc1ccc(CNc2nc(NCCc3ccccc3)c3cc(OC)c(OC)cc3n2)cc1OC | 5.84 |
| CCNC(=O)Nc1ccc(-c2cnc(N)c(-c3nc4ccc(OC)cc4[nH]3)c2)cc1 | 10.5 |
| O=C(NC1CCN(c2ccnc3ccccc23)C1)c1cccc(C(F)(F)F)c1 (configuration not stated) | -0 |
